In test [1] the target is T1, human CD47 on the cell surface (human, UniProt Q08722).
T1 construct: whole, on cells; also called huCD47; native CD47
Kind of test: FACS on DS-1 cells (CD19-negative, CD47-positive), human IgG1 format.

For another test, the target named is T2, human CD19 on Raji cells (human, UniProt P15391 20-556).
T2 construct: whole, on cells; also called native form of hCD19
T2 sequence (looked up): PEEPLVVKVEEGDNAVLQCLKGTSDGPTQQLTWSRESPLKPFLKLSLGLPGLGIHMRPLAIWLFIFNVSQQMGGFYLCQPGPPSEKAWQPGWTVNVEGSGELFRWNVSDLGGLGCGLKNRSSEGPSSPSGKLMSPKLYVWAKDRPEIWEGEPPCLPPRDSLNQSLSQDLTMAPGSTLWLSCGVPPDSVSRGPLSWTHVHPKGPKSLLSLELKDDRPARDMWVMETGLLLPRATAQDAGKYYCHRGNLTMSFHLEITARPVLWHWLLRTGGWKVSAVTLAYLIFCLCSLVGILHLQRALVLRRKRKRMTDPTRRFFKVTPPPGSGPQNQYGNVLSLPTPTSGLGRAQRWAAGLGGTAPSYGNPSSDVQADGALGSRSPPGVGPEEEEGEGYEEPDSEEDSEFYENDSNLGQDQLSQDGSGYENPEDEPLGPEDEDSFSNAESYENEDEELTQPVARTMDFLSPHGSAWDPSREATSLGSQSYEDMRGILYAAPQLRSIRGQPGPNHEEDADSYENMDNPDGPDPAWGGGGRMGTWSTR
Put plainly: FACS on Raji cells (CD19-positive, CD47-positive), human IgG1 format, 0.01-10 µg/ml.

Test [2] has as its target T1, human CD47 on the cell surface. Described as above.

B1: CD19 monovalent C2 (other)
common heavy chain: [no letters for about 120 residues][no letters for about 100 residues][no letters for human IgG1 Fc]
kappa dummy light chain 2: EIVMTQSPATLSVSPGERATLSCRASQTVKNNLAWYQQKPGQAPRLLIYGASTRATGIPARFSGSGSGTEFTLTISSLQSEDFAVYYCQQYNNWLPINPYTFGQGTKVEIKRTVAAPSVFIFPPSDEQLKSGTASVVCLLNNFYPREAKVQWKVDNALQSGNSQESVTEQDSKDSTYSLSSTLTLSKADYEKHKVYACEVTHQGLSSPVTKSFNRGEC
lambda light chain (C2, anti-CD19): NFMLTQPHSVSESPGKTVTISCTRSSGSIEDKYVQWYQQRPGSSPTIVIYYDNERPSGVPDRFSGSIDSSSNSASLTISGLKTEDEADYYCQTYDQSLYGWVFGGGTKLTVLGQPKAAPSVTLFPPSSEELQANKATLVCLISDFYPGAVTVAWKADSSPVKAGVETTTPSKQSNNKYAASSYLSLTPEQWKSHRSYSCQVTHEGSTVEKTVAPTECS
notes: one CD19 arm and one dummy arm, human IgG1; also called monovalent antibody C2
As for B1, the binding result in test [1] is on record as “no binding (tested: 10 µg/ml)”; in the test with human CD19 on Raji cells it was “binds”.

B2: CD47 monovalent 5A3M5 (other)
common heavy chain: [no letters for about 120 residues][no letters for about 100 residues][no letters for human IgG1 Fc]
kappa light chain (5A3-M5, anti-CD47): DIQMTQSPSSLSASVGDRVTITCQASQDINKYLNWYQQKPGKAPKLLIYGASRLETGVPSRFSGSGSGTDFTFTISSLQPEDIATYYCQQKHPRYPRTFGQGTKVEIKRTVAAPSVFIFPPSDEQLKSGTASVVCLLNNFYPREAKVQWKVDNALQSGNSQESVTEQDSKDSTYSLSSTLTLSKADYEKHKVYACEVTHQGLSSPVTKSFNRGEC
lambda dummy light chain 1: QSVLTQPPSVSAAPGQKVTISCSGSSSNIETGSVSWYQQLPGTAPKLLIYDNNKRPSGIPDRFSGSKSGTSATLGITGLQTGDEADYYCGTWDDSLPGWVFGGGTKLTVLGQPKAAPSVTLFPPSSEELQANKATLVCLISDFYPGAVTVAWKADSSPVKAGVETTTPSKQSNNKYAASSYLSLTPEQWKSHRSYSCQVTHEGSTVEKTVAPTECS
notes: one CD47 arm and one dummy arm; also called monovalent antibody 5A3-M5
For B2, the binding result in test [2] is “binds”.
